Hit rate of the full screen: of about 45,000 compounds, about 65 (0.1%) were called active. Calls follow the shape of the dose curve; as a rule, active = well fitted activation curve with a large enough effect; inconclusive = small, poorly fitted or top-dose-only effect; inactive = no such curve, though single readings can be large or run the other way. The list shows a part of the results.
What follows are molecules tested against Galactocerebrosidase (Homo sapiens) (UniProt P54803) (assay: A Novel Cell-Based Assay to Identify Small Molecules for B -Galactocerebrosidase). Conditions: 145M-Twi-hGALC-G270D cells (Twitcher mouse brain line with human GALC G270D), HMU-beta-Gal fluorescence, 48 h; series mostly up to 57.5 µM; activation: at the top concentration.
Chain of UniProt P54803 (P54803 whole entry, looked up): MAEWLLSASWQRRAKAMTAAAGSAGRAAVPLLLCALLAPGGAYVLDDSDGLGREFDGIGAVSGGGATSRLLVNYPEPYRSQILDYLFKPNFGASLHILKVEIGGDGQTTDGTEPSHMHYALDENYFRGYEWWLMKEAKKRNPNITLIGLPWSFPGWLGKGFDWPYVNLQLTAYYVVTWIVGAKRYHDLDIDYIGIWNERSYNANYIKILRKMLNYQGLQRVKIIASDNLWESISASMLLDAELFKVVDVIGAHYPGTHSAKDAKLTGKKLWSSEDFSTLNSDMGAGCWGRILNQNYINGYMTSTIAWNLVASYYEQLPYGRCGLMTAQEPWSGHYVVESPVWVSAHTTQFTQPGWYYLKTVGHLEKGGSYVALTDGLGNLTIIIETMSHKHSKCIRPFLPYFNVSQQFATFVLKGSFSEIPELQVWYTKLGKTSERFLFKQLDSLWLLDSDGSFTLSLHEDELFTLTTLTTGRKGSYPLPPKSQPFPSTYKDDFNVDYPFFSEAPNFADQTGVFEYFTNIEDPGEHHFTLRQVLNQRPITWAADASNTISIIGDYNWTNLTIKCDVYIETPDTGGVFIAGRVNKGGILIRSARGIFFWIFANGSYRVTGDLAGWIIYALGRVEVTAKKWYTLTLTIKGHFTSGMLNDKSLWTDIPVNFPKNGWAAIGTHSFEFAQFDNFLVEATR
How it was run: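 Mutant human GALC (G270D), stably expressed in a Twitcher mouse brain cell line lacking endogenous GALC, is measured in live-treated cells via 6-hexadecanoylamino-4-methylumbelliferyl-β-galactoside hydrolysis (0.1 mM final, pH 5.2) with fluorescent detection.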
Also: nearly all actives have a fitted effect of over 65% in size.
For activation in this document: 0% is about no effect.
Potency is read from the fitted curve at half-maximal effect.

activation, inactive:
Cc1cc(NC(=O)Nc2nnc(N(C)C3CCCCC3)s2)ccc1Br -12.5%
COc1ccc(C(=O)N2CCC(c3nc4ccccc4s3)CC2)cc1Cl -23.6%
CCc1ccc(NCc2cc3cc4c(cc3n(CC(=O)Nc3ccccc3OC)c2=O)OCCO4)cc1 -1.72%
Cc1nn(-c2ccccc2)c2c1cc1c(=O)[nH]c(=O)nc-1n2-c1cccc(Cl)c1 -13.5%
COc1ccccc1NC(=O)CSc1nnc(NC(=O)NC2CCCCC2)s1 -13.4%
Cc1ccc(CNC(=O)C2CCN(S(=O)(=O)c3cccc4nonc34)CC2)cc1 -0.17%
Cc1cc(=O)c2cc(C(=O)Nc3ccc(C)c(C)c3)ccc2[nH]1 -15.3%
CCc1ccccc1NC(=O)Cn1c(=O)n(CCCCCC(=O)NCc2ccc(C)cc2)c(=O)c2sccc21 1.2%
CCOC(=O)O[C@]1(C(=O)OCCl)CC[C@H]2[C@@H]3CCC4=CC(=O)C=C[C@]4(C)[C@H]3[C@@H](O)C[C@@]21C -19.7%
CN(C)[C@@H]1C(=O)C(C(N)=O)=C(O)[C@@]2(O)C(=O)C3=C(O)c4c(O)cccc4C[C@H]3C[C@@H]12 -16.8%
O=C(c1ccc2c(c1)N(Cc1ccccc1F)C(=O)c1ccccc1S2(=O)=O)N1CCc2ccccc21 2.67%
CCC(Sc1nc2ccncc2[nH]1)C(=O)Nc1cc(Cl)ccc1C (centres undefined) -9.19%
COc1cc(Cl)c(C)cc1NC(=O)CSc1nc2c(c(=O)[nH]1)CCC2 -15.1%
Cc1ccc(S(=O)(=O)CCC(=O)Nc2ccc(OC(F)(F)F)cc2)cc1 -6.08%
Cc1cccc(NC(=O)Cn2ncc3c4ccccc4n(Cc4ccccc4)c3c2=O)c1C -21%
CN1C(=O)c2ccccc2C1=O -6.53% [at 114 µM]
CC(CC1c2ccccc2CCc2ccccc21)CN(C)C (centres undefined) -19%
CCc1ccc(S(=O)(=O)c2nnn3c2nc(N2CCOCC2)c2sccc23)cc1 -13.3%
Cc1cc(-c2ccccc2)n2nc(-c3ccc(Cl)cc3)cc2n1 -16.6%
Cc1cc(Br)ccc1NC(=O)C1CCCN(S(=O)(=O)c2cccc3nonc23)C1 (centres undefined) -19.9%
Cc1cc(N2CCC(C(=O)Nc3ccc(F)cc3C)CC2)n2nc(C)c(-c3ccc(Cl)cc3)c2n1 -7.44%
Cc1ccc(N2CC(c3nc(-c4ccc(Cl)cc4)no3)CC2=O)cc1F (centres undefined) -17.8%
CC(=O)c1cccc(NS(=O)(=O)c2cc(-c3onc(C)c3C)ccc2C)c1 -41%
COc1ccc(NC(=O)CSc2oc(-c3ccc(F)cc3)nc2S(=O)(=O)c2ccc(C)cc2)c(OC)c1 -8.82%
Cc1sc2c(c1C)c(=O)n(-c1ccc(Cl)cc1)c(=O)n2Cc1cc(=O)n2cc(Br)ccc2n1 -10.7%
COc1cc(Cl)c(NC(=O)c2cc(S(=O)(=O)N3CCCCC3)c[nH]2)c(OC)c1 -20.8%
COc1ccc2cc3cc(C(=O)Nc4cc(C)c(Cl)cc4OC)oc3nc2c1 -0.0005%
CCc1cccc(CC)c1NC(=O)C1CCC(CNS(=O)(=O)c2cccc3nsnc23)CC1 (centres undefined) -13.2%
CCOc1ccccc1NC(=O)CSc1nc2c(sc3ccccc32)c(=O)n1CCCC(=O)NC1CCCC1 -10.7%
COc1cc(NC(=O)C2CCN(S(=O)(=O)c3ccc4c(c3)CCCC(=O)N4)CC2)cc(OC)c1 -16%
CCOC(=O)c1c(S(=O)(=O)N2CCCC(C(=O)NCc3ccccc3Cl)C2)c(C)n(C)c1C (centres undefined) -7.61%
Cc1cccc(OCc2nc(CC(=O)Nc3ccc(C)cc3C)cs2)c1 -4.65%
Cc1cccc(N2CCN(C(=O)c3cnn(-c4ccccc4Cl)c3C3CCN(C(=O)OC(C)(C)C)CC3)CC2C)c1 (centres undefined) -15.1%
CCN(c1ccccc1)S(=O)(=O)c1nnc(NC(=O)c2ccccc2)s1 3.67%
COc1cccc(CNC(=O)c2ccc(CNS(=O)(=O)c3ccc(C)cc3)cc2)c1 -37.8%
O=C(Nc1ccccc1)N(Cc1c[nH]c2ccccc12)C1CCCCCC1 -11.7%
CCOC(=O)c1c(NC(=O)c2cc(OCC)c(OCC)c(OCC)c2)sc2c1CCCCC2 -12.7%
COc1ccc(-c2cc(C(=O)NC(C)c3ccccc3)c3cc(C(C)C)ccc3n2)cc1 (centres undefined) -13.1%
Cc1ccc(CNC(=O)Cn2c(=O)ccc3cc(S(=O)(=O)N4CCC(C)CC4)ccc32)cc1 -16.2%
O=C(Nc1ccccc1C(F)(F)F)c1cc(-c2ccc3c(c2)OCCO3)on1 -0.127%
CCN(CC)CCNC(=O)C(=O)NCC(c1cccnc1)N1CCN(c2ccc(F)cc2)CC1 (centres undefined) -4.64%
CCc1ccc(C2c3c(oc4ccc(F)cc4c3=O)C(=O)N2CCc2ccc(OC)cc2)cc1 (centres undefined) -18.5%
COc1ccc(S(=O)(=O)NCCc2sc(-c3cccnc3)nc2C)c(F)c1 -20.6%
CC1CCc2c(sc3nnn(CCCCOc4ccc(Cl)cc4)c(=O)c23)C1 (centres undefined) -14.1%
COc1ccc(CNCCCSc2nnnn2-c2ccccc2)cc1 -5.61%
CCOCCCNC(=O)c1cc(Sc2cccc(Cl)c2)nc2ccccc12 -32.9%
COc1ccc(-c2cn3nc(N4CCCC(C(=O)Nc5cccc(OC)c5)C4)sc3n2)cc1 (centres undefined) -11.6%
COc1cc2c(cc1OC)n(CC(=O)c1cccc(Cl)c1)c(=O)n1nc(CCn3nc(C)cc3C)nc21 -6.46%
Cc1ccc(Nc2sc(C(=O)c3ccccc3)c(N)c2C(=O)Nc2ccc(Cl)cc2)cc1 2.02%
Cc1ccc(CC(=O)Nc2ccc3c(c2)N(C)C(=O)c2ccccc2S3)cc1 -15.2%
O=C(NCc1cccnc1)C(=O)NCC(c1cccnc1)N1CCN(c2ccc(F)cc2)CC1 (centres undefined) -13.8%
COc1cccc(C(=O)N2c3ccc(C)cc3C(C)(c3ccccc3)CC2(C)C)c1 (centres undefined) 6.4%
COc1ccc(C2NC(=O)NC(C)=C2C(=O)Nc2ccccc2)cc1OC (centres undefined) 14.4%
Cc1ccccc1C(=O)Nc1sc2c(c1C(=O)N1CCCCC1)CCC(C)C2 (centres undefined) -9.46%
O=C(CCN1C(=O)c2ccccc2Sc2ncccc21)Nc1ccc(F)cc1F 7.19%
CC(C)c1ccc(NC(=O)Cn2cc(S(=O)(=O)Cc3cccc(Cl)c3)c3ccccc32)cc1 -8.62%
O=C(CCS(=O)(=O)c1nc(-c2cccs2)cc(C(F)(F)F)n1)Nc1cc(Br)ccc1O -11.2%
CCCOc1ccc(C(=O)Nc2ccc3oc(-c4cccc(Cl)c4Cl)nc3c2)cc1 -12.9%

Potency, active:
COc1ccccc1/C=C/c1nc(C#N)c(N2CCN(C)CC2)o1 28.2 µM
